Measurements reported in PubChem BioAssay AID1345082 (National Center for Advancing Translational Sciences (NCATS), 2018).
Among all 94,000 compounds or so, about 4,000 (4.3%) were called active. Inconclusive results, whose numbers are uncertain, are shown with a selection of clear calls. Calls come from the whole dose curve; as a rule, active = well fitted inhibition curve with a large enough effect; inconclusive = small, poorly fitted or top-dose-only effect; inactive = no such curve, though single readings can be large or run the other way. Potencies of inconclusive entries are doubtful fits and often do not repeat.

Test: Cytotoxic Profiling in NIH 3T3 Cell Line of Diverse Libraries Using Quantitative High-Throughput Screening; note: nearly all actives have a fitted effect of over 55% in size
Details: NIH 3T3 viability, CellTiter-Glo ATP luminescence, 48-72 h; series mostly up to 96.7 µM
Procedure, shortened: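 Viability of NIH 3T3 cells after 48 or 72 hr compound treatment at 37 °C was assessed by CellTiter-Glo, with luminescence imaged following a 10 min room-temperature step.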
Potency is the fitted concentration of half-maximal effect; tags give direction and shape of the fitted curve.

SMILES | Potency
O=C(CN1CCCc2nc(-c3ccccc3)ncc2C1=O)NCCc1c[nH]c2ccccc12 | inconclusive: 44.7 µM [inhibitor, partial curve, poor fit]
O=C1Nc2ccccc2CC12CCN2Cc1ccc(F)cc1 (configuration not stated) | inactive
Cc1cccc(CNC(=O)c2cc3n(n2)CC(c2ccc(Cl)cc2)OC3)c1 (configuration not stated) | inconclusive: 70.8 µM [inhibitor, single point]
Cc1ccc(-c2cc3c(=O)n(CCNC(=O)Cc4ccccc4Cl)ccn3n2)c(C)c1 | inactive
CN1Cc2c(cc(N3CCOCC3)nc2-c2cccc(F)c2)C1=O | active: 8.91 µM
COc1ccccc1CNC(=O)C[C@@H]1CCNC[C@@H]1Cc1cc(C(C)(C)C)on1 | active: 100 µM
CCNC(=O)c1ccc(-c2cc(NC3CCCC3)nc3[nH]ccc23)nc1 | inactive
c1csc(CN2Cc3[nH]cnc3C[C@H]2c2nc(-c3ccc4c(c3)OCO4)no2)c1 | inactive
O=C(C[C@@H]1CCNC[C@@H]1Cc1cc(CC2CCCCC2)on1)NCc1ccco1 | active: 100 µM
C=CCNC(=O)N[C@H]1CCN(C(=O)CSC)[C@@H]1C(=O)N[C@@H](Cc1cccs1)C(N)=O | inactive
CC(=O)N1CCCN(c2ncc(S(C)(=O)=O)c(C3CCCNC3)n2)CC1 (configuration not stated) | inactive
O=C(Nc1ccccc1F)N1CCCN(c2ccc3nnc(-c4ccccc4)n3n2)CC1 | inconclusive: 50.1 µM [inhibitor, partial curve, poor fit]
Cc1nc(CN2CC3(CCN(C)C3)c3cc(C(=O)Nc4ccccc4)ccc32)cs1 (configuration not stated) | inconclusive: 100 µM [inhibitor, partial curve, poor fit]
COc1ccc(-c2nc3c(C)cccc3cc2CN2CCC(O)CC2)cc1OC | inconclusive: 89.1 µM [inhibitor, single point]
O=C(O)c1cnc(NCc2ccccn2)nc1-c1cccc(Cl)c1 | inactive
Cc1noc(C)c1C(=O)N1Cc2ccccc2CC2(CCN(C)C2)C1 (configuration not stated) | active: 79.4 µM
CSc1ccc(-c2cccc(C(=O)NCC(=O)NCc3cccs3)c2)cc1 | inconclusive: 10 µM [inhibitor, full curve, poor fit]
O=C(CC1CCCN(c2cn[nH]c(=O)c2)C1)N1CCCCC1 (configuration not stated) | inactive
O=C(Nc1ccc(F)cc1)c1nc2sccn2c1-c1ccc(F)cc1 | inconclusive: 22.4 µM [inhibitor, full curve, poor fit]
COc1ccccc1-c1ccc2c(C(=O)NCc3cccs3)nn(C)c2n1 | inactive
CN(C)CCN1CCN(c2cc(C3CC(N)C3)nc(N)n2)CC1 (configuration not stated) | inactive
Fc1cnc(N2CCCC(OCc3cccnc3)C2)nc1N1CCOCC1 (configuration not stated) | inconclusive: 56.2 µM [inhibitor, partial curve, poor fit]
O=C(NC1CCN(c2cc(-c3cccs3)[nH]n2)CC1)c1ccc(F)cc1Cl | inconclusive: 35.5 µM [inhibitor, partial curve, poor fit]

SMILES | Potency
Cc1cc(CNC(=O)C2CC(=O)N(c3ccc(C(C)C)cc3)C2)no1 (configuration not stated) | inactive
COc1ccc(F)cc1-c1ccc(CN2CCC(NC(=O)c3ccc(C(F)(F)F)cc3)C2)cc1 (configuration not stated) | inconclusive: 56.2 µM [inhibitor, partial curve, poor fit]
O=C(Nc1cccc(Cl)c1)c1ccnc(-c2nnc3ccc(N4CCOCC4)nn23)c1 | inconclusive: 20 µM [inhibitor, full curve, poor fit]
Cc1ccccc1-n1ncc(C(C)NC(=O)c2ccsc2)c1C (configuration not stated) | inactive
Cc1ccc(CN2CCC(CNc3nccc(-c4ccccn4)n3)CC2)o1 | inconclusive: 89.1 µM [inhibitor, single point]
COCCN1C(=O)c2ccccc2C(C(=O)Nc2cccc(NC(C)=O)c2)C12CCCCC2 (configuration not stated) | inconclusive: 70.8 µM [inhibitor, single point]
Cc1ccc(C)c(OCC(=O)c2ccc3c(c2)N(CCCC(=O)NCC2CCCO2)C(=O)CO3)c1 (configuration not stated) | inconclusive: 50.1 µM [inhibitor, partial curve, poor fit]
COc1cc(=O)n2c(c1C(=O)Nc1cc(F)ccc1F)CCCC2 | inconclusive: 79.4 µM [inhibitor, single point]
Cc1cccc(OCCc2noc(C3CN(S(=O)(=O)c4ccccc4)C3)n2)c1 | inconclusive: 50.1 µM [inhibitor, partial curve, poor fit]
COc1ccc(CC(=O)N2CCCC3(CNc4ncccc4[S+](=O)([O-])N3)C2)cc1 (configuration not stated) | inactive
Cc1ccc(C(=O)N2CCC(Cc3nc(-c4ccccc4)n[nH]3)CC2)cn1 | inactive
COc1ccc2c(c1)OCC(C(=O)NCCS(=O)(=O)N1CCCC1)C2 (configuration not stated) | inactive
O=C(c1cccs1)N1CCc2[nH]nc(-c3cccc(F)c3)c2C1 | inconclusive: 56.2 µM [inhibitor, partial curve, poor fit]
Cc1cccc(CC(=O)N2[C@@H]3CC[C@H]2CC(NC(=O)c2ccncc2)C3)c1 (some centres not stated) | inconclusive: 35.5 µM [inhibitor, partial curve, poor fit]
O=C(NCc1ccc(F)c(F)c1)c1cn2cc(-c3ccc(C(F)(F)F)cc3)sc2n1 | active: 44.7 µM
CN(C)c1ncc2c(n1)C(C)(C(=O)NCc1ccc3c(c1)OCO3)CCC2 (configuration not stated) | inconclusive: 100 µM [inhibitor, partial curve, poor fit]
O=C(Nc1cccc(-c2nnc3n2CCCC3)c1)C1CCCCC1 | inactive
COc1ccc(C2(C(=O)N3CCC[C@H]3c3nc(-c4ccccc4Cl)no3)CC2)cc1 | inconclusive: 44.7 µM [inhibitor, partial curve, poor fit]
O=C(NCCc1cnc[nH]1)c1nc(-c2ccccc2)cc2[nH]ccc12 | inconclusive: 50.1 µM [inhibitor, partial curve, poor fit]
CC(=O)Nc1cccc(C(=O)NC2CCCN(c3cc(-c4ccc(Cl)cc4)[nH]n3)C2)c1 (configuration not stated) | inconclusive: 50.1 µM [inhibitor, partial curve, poor fit]
O=[S+]1([O-])NC2(CCN(Cc3cccs3)CC2)COc2ccccc21 | inactive
CCCn1nc(C)cc1CN(C)C(=O)c1ccc2c(c1)C(O)CCCCCN2C (configuration not stated) | inconclusive: 44.7 µM [inhibitor, partial curve, poor fit]
CCN1c2cc(C(=O)NCc3ccc(OC)c(OC)c3)ccc2C(=O)N2CCCCCC21 (configuration not stated) | inconclusive: 35.5 µM [inhibitor, partial curve]

SMILES | Potency
COc1ccc(C(=O)N2CCC(N3Cc4cnc(C)n4C3=O)CC2)cc1 | inactive
COc1ccc2nc([C@H]3CCN(CC(C)C)C3)[nH]c2c1 | active: 112 µM
CC(=O)c1cccc(NC(=O)O[C@@H]2CO[C@H]3[C@@H]2OC[C@@H]3Nc2nccc(-c3cccc(F)c3)n2)c1 | inconclusive: 39.8 µM [inhibitor, partial curve, poor fit]
Cc1noc2c(-c3cccnc3)cc(-c3cccs3)nc12 | inconclusive: 20 µM [inhibitor, full curve, poor fit]
CNC(=O)[C@H]1C[C@H](Oc2cccnc2)CN1C(=O)NC1CCCCC1 | inactive
COc1ccc(C(=O)N2CCC(c3n[nH]c(=O)n3-c3ccc(C)cc3)CC2)cc1 | inconclusive: 31.6 µM [inhibitor, full curve, poor fit]
CCOc1ccc(CC(=O)N2CCC[C@H]2c2nc(-c3ccccc3)no2)cc1 | inconclusive: 50.1 µM [inhibitor, partial curve, poor fit]
CCN(Cc1ccccc1)C(=O)Cn1c(C)ccc(NS(=O)(=O)c2ccccc2)c1=O | inactive
COCC1CN(C(C)=O)CC12CCN(C(=O)c1ccccc1OC)CC2 (configuration not stated) | inactive
O=C(Nc1ccc(F)c(Cl)c1)C1CCN(C(=O)c2ncn3c2COC(c2ccccc2)C3)CC1 (configuration not stated) | inactive
CNC(=O)[C@@H](Cc1ccccc1)N1CCC[C@H]1C(=O)NCCN(C)C | inactive
Cn1c(=O)cc(C(=O)NC2CCCc3c2[nH]c2c(Cl)cccc32)c2ccccc21 (configuration not stated) | inconclusive: 39.8 µM [inhibitor, partial curve, poor fit]
Cn1cc(CN2C[C@H](O)C[C@H]2c2nc(-c3cccc([N+](=O)[O-])c3)no2)c2ccccc21 | inconclusive: 100 µM [inhibitor, single point]
CN(Cc1cnn(-c2ccc(F)cc2)c1)C(=O)c1cn(Cc2cccc3ccccc23)nn1 | inconclusive: 44.7 µM [inhibitor, partial curve, poor fit]
COc1cccc(CN2C(=O)OC3(CCN(Cc4cccc(C)c4)CC3)C2(C)c2cccnc2)c1 (configuration not stated) | inconclusive: 50.1 µM [inhibitor, partial curve, poor fit]
O=C1NC2(CN(Cc3ccc(C(F)(F)F)cc3)C2)Oc2ccccc21 | inconclusive: 50.1 µM [inhibitor, partial curve, poor fit]
Cc1nc(-c2c3n(c(=O)n(CC(=O)Nc4ccccc4C)c2=O)CCCCC3)no1 | inactive
CCC(C)NC(=O)c1cc(-c2ccc(F)cc2)nc2c1cnn2C (configuration not stated) | inconclusive: 15.8 µM [inhibitor, full curve, poor fit]
CSc1cccc(NC(=O)C2CCN(C(=O)c3ncn4c3COC(c3ccc(F)cc3)C4)CC2)c1 (configuration not stated) | inactive
O=S(=O)(c1ccc(F)c(F)c1)N1CCC(n2cnnc2C2CC2)CC1 | inactive
Cc1ccccc1-c1cnc2[nH]cc(CC(=O)NC3CC3)c2c1 | inconclusive: 31.6 µM [inhibitor, partial curve, poor fit]
